Test results as given in the supplement of paper PMC7826260.
This is one part of the list. Each Rep nickase domain was tested in vitro on the same pool of single strands (1 h at 37 °C, 3 µM enzyme); the outer parts of the 90-letter strands are left off. Numbers give uncut DNA relative to the enzyme-free pool, as log2; uncut sequences lie near 0, cut ones below; no hit call is given. The scaling is to total reads, so uncut sequences can rise above 0 when many others are cut.

Key:
Assay in all cases: uncleaved DNA left, log2 of reads against the no-enzyme library (log2 ratio); higher = less cleavage (more negative = more Rep cleavage of the k-mer); sequences stand for … in CTCGTCCG…ACCGGAGA
[1] = system: T1, Rep nickase domain of Muscovy duck circovirus
T1 sequence (protein, residues 1-111, tag omitted): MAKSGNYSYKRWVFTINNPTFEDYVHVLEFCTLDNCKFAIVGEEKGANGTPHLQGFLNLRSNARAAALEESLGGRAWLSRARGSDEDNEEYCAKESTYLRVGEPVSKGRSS
Method: (§1)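 A pool of 90-nt single-stranded DNAs with seven random bases just before the constant AC of the nick site (name = the seven bases) was cut by 3 µM recombinant His6-SUMO-tagged Rep nickase domain (300 nM DNA, 50 mM HEPES pH 8.0, 50 mM NaCl, 1 mM MnCl2, 1 h, 37 °C, three replicates). Uncut DNA was amplified and sequenced.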

[2] = system: T2, Rep nickase domain of banana bunchy top virus
T2 sequence (protein, residues 1-94, tag omitted): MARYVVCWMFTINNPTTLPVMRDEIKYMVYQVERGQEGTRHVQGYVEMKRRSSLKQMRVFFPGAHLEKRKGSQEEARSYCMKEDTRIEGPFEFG
Method: as §1

[3] = system: T3, Rep nickase domain of cabbage leaf curl virus
T3 sequence (protein, residues 1-116, tag omitted): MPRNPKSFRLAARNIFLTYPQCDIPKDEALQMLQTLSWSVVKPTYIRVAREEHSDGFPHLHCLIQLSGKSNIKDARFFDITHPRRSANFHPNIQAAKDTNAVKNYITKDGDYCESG
Method: as §1

[4] = system: T4, Rep nickase domain of chickpea chlorotic dwarf virus
T4 sequence (protein, residues 1-124, tag omitted): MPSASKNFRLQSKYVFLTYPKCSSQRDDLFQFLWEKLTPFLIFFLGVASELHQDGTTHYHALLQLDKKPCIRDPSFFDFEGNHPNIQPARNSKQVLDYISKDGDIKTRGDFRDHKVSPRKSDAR
Method: as §1

[5] = system: T5, Rep nickase domain of faba bean necrotic yellows virus
T5 sequence (protein, residues 1-98, tag omitted): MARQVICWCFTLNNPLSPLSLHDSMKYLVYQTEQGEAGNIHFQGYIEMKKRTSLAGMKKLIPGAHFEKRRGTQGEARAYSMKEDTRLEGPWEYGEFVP
Method: as §1

[6] = system: T6, Rep nickase domain of maize striate mosaic virus
T6 sequence (protein, residues 1-117, tag omitted): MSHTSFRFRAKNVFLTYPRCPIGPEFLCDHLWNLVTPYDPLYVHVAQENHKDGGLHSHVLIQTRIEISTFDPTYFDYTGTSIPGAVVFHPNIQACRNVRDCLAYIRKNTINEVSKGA
Method: as §1

[7] = system: T7, Rep nickase domain of porcine circovirus 2
T7 sequence (protein, residues 2-116, tag omitted): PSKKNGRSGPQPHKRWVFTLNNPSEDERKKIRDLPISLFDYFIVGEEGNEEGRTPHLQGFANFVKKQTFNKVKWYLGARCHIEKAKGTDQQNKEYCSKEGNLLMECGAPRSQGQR
Method: as §1

[8] = system: T8, Rep nickase domain of tomato golden mosaic virus
T8 sequence (protein, residues 1-124, tag omitted): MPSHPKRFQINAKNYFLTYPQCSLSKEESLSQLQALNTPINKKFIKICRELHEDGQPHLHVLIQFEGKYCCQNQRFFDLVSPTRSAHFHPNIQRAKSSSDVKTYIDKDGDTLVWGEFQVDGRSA
Method: as §1

[9] = system: T9, Rep nickase domain of tomato yellow leaf curl virus
T9 sequence (protein, residues 1-136, tag omitted): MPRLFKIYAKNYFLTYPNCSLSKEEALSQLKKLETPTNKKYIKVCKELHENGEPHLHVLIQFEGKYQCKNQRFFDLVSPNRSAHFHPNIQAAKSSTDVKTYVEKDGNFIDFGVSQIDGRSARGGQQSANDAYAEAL
Method: as §1

[10] = system: T10, Rep nickase domain of wheat dwarf virus
T10 sequence (protein, residues 1-137, tag omitted): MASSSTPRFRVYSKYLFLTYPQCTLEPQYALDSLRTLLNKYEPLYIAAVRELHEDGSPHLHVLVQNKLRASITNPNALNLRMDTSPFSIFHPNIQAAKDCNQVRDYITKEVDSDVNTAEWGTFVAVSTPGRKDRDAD
Method: as §1

Sequence | uncleaved DNA left (log2) [1] | uncleaved DNA left (log2) [2] | uncleaved DNA left (log2) [3] | uncleaved DNA left (log2) [4] | uncleaved DNA left (log2) [5] | uncleaved DNA left (log2) [6] | uncleaved DNA left (log2) [7] | uncleaved DNA left (log2) [8] | uncleaved DNA left (log2) [9] | uncleaved DNA left (log2) [10]
ACTCACG | -0.12 | 0.0269 | -0.807 | 0.398 | 0.0399 | -0.574 | 0.179 | -0.104 | -0.0682 | 0.00795
ATAAAGA | -0.00892 | -0.0902 | -0.144 | -0.27 | -0.0154 | -1.19 | 0.0886 | -0.0287 | -0.107 | -0.131
GAAGTAG | 0.1 | -0.000363 | -0.42 | -0.433 | 0.154 | -0.835 | 0.146 | 0.0947 | 0.107 | -0.0312
GAATCGT | -0.17 | 0.107 | -2.28 | -2.3 | 0.0115 | -0.919 | -1.61 | -0.267 | -0.0163 | -0.58
ACAAAAC | -0.0541 | 0.0235 | -0.132 | -0.375 | 0.0703 | -0.817 | 0.177 | 0.0533 | -0.057 | 0.0154
GGTTTAT | -0.0462 | -0.0517 | 0.267 | 0.99 | -0.0676 | 1.78 | -0.126 | -0.0176 | 0.0328 | -0.101
ATTTCGG | -0.0352 | 0.00876 | 0.505 | 1.43 | -0.095 | 1.75 | 0.109 | 0.0802 | -0.188 | 0.047
ATTTAAA | -0.0336 | -0.0321 | -0.0965 | -0.19 | 0.0353 | -0.556 | -0.0723 | 0.0695 | -0.0364 | 0.00209
AATCTGC | 0.13 | 0.0376 | -0.342 | -0.351 | 0.03 | -0.913 | 0.109 | 0.0617 | 0.0578 | -0.00316
CGTGCTC | -0.0805 | -0.141 | -0.0254 | -0.156 | -0.0722 | -0.507 | -0.0183 | -0.0992 | -0.0436 | -0.0406
GGGGAAA | 0.0667 | 0.132 | 0.909 | 2.06 | 0.117 | 2.35 | 0.285 | 0.0486 | 0.182 | 0.264
ACCGTCA | 0.00645 | -0.0948 | -0.22 | -0.847 | 0.000846 | -0.779 | -0.0694 | -0.0322 | -0.0705 | -0.0305
GGGCCTA | 0.0403 | -0.0348 | 0.812 | 1.93 | -0.0237 | 2.18 | 0.113 | 0.0571 | 0.0194 | 0.126
TCAGTTT | -0.102 | -0.235 | -0.205 | -2.07 | -0.181 | -0.153 | -0.304 | -0.0852 | -0.306 | -0.238
TCGGGAG | -0.024 | -0.057 | -0.123 | 0.0538 | -0.00628 | -0.421 | 0.151 | 0.124 | 0.112 | -0.121
GATCACG | -0.0678 | -0.165 | -0.69 | -0.431 | -0.0577 | -1.13 | -0.032 | -0.183 | -0.0683 | -0.255
